Measured values: patent EP0745599A2, “1-(3-Heterocyclylphenyl)-s-triazine-2,4,6-oxo or thiotrione herbicidal agents” (American Cyanamid Company, priority 1995, dated 1996)
The name of at least one read-out is uncertain.

Tests used:
Assay type in all cases: in vivo
Details in all cases: rated four to five weeks after treatment
IPOMOEA SPP. = assay: Postemergence herbicidal evaluation, IPOSS (Morningglory Spp.)
[1] = system: AMBROSIA ARTEMISIIFOLIA, L.; assay: Postemergence herbicidal evaluation, AMBEL (Ragweed, Common)
Method: (§1) In the tests, seedling plants are grown in jiffy flats for about two weeks. The test compounds are dispersed in 50/50 acetone/water mixtures containing 0.5% TWEEN®20, a polyoxyethylene sorbitan monolaurate surfactant of Atlas Chemical Industries, in sufficient quantities to provide the equivalent of about 0.125 kg to 0.500 kg per hectare of active compound when applied to the plants through a spray nozzle operating at 40 psi for a predetermined time. After spraying, the plants are placed on greenhouse benches and are cared for in the usual manner, commensurate with conventional greenhouse practices. From four to five weeks after treatment, the seedling plants are examined and rated according to the rating system set forth below. Where more than one test is involved for a given compound, the data are averaged.
(§2) Results of herbicide evaluation are expressed on a rating scale (0-9). The scale is based upon a visual observation of plant stand, vigor, malformation, size, chlorosis and overall plant appearance as compared with a control.

CHENOPODIUM ALBUM, L. = assay: Postemergence herbicidal evaluation, CHEAL (Lambsquarters, Common)
Method: as §1, §2

GALIUM APARINE = assay: Postemergence herbicidal evaluation, GALAP (Galium)
[2] = system: ABUTILON THEOPHRASTI, MEDIC.; assay: Postemergence herbicidal evaluation, ABUTH (Velvetleaf)
Method: as §1, §2

ZEA MAYS L. = assay: Postemergence herbicidal evaluation, ZEAMX (Corn, Field)
Method: as §1, §2

[3] = system: GLYCINE MAX(L)MERR. CV. WILLIAMS; assay: Postemergence herbicidal evaluation, GLXMAW (Soybean, Williams)
Method: as §1, §2

[4] = system: ORYZA SATIVA, L. TEBONNET; assay: Postemergence herbicidal evaluation, ORYSAT (Rice, Tebonnet)
Method: as §1, §2

[5] = system: TRITICUM AESTIVUM, CV. APOLLO; assay: Postemergence herbicidal evaluation, TRZAWO (Wheat, Winter, CV. APOLLO)
Method: as §1, §2

Structure (SMILES)	Herbicide rating (0-9) IPOSS (IPOMOEA SPP.; 0.125 kg/ha)	Herbicide rating (0-9) IPOSS (IPOMOEA SPP.; 0.250 kg/ha)	Herbicide rating (0-9) IPOSS (IPOMOEA SPP.; 0.500 kg/ha)	Herbicide rating (0-9) AMBEL ([1]; 0.125 kg/ha)	Herbicide rating (0-9) AMBEL ([1]; 0.250 kg/ha)	Herbicide rating (0-9) AMBEL ([1]; 0.500 kg/ha)	Herbicide rating (0-9) CHEAL (CHENOPODIUM ALBUM, L.; 0.125 kg/ha)	Herbicide rating (0-9) CHEAL (CHENOPODIUM ALBUM, L.; 0.250 kg/ha)	Herbicide rating (0-9) CHEAL (CHENOPODIUM ALBUM, L.; 0.500 kg/ha)	Herbicide rating (0-9) GALAP (GALIUM APARINE; 0.125 kg/ha)	Herbicide rating (0-9) GALAP (GALIUM APARINE; 0.250 kg/ha)	Herbicide rating (0-9) GALAP (GALIUM APARINE; 0.500 kg/ha)	Herbicide rating (0-9) ABUTH ([2]; 0.125 kg/ha)	Herbicide rating (0-9) ABUTH ([2]; 0.250 kg/ha)	Herbicide rating (0-9) ABUTH ([2]; 0.500 kg/ha)	Herbicide rating (0-9) ZEAMX (ZEA MAYS L.; 0.125 kg/ha)	Herbicide rating (0-9) ZEAMX (ZEA MAYS L.; 0.250 kg/ha)	Herbicide rating (0-9) ZEAMX (ZEA MAYS L.; 0.500 kg/ha)	Herbicide rating (0-9) GLXMAW ([3]; 0.125 kg/ha)	Herbicide rating (0-9) GLXMAW ([3]; 0.250 kg/ha)	further results
CCOC(=O)Cn1c(=O)n(CC(=O)OC(C)(C)C)c(=O)n(-c2ccc(F)c(N3C(=O)C4=C(CCCC4)C3=O)c2)c1=O [Compound 8, 5-[3-(1-Cyclohexene-1,2-dicarboximido)-4-fluorophenyl]dihydro-2,4,6-trioxo-s-tri-azine-1,3(2H,4H)-diacetic acid, 1-tert-butyl, ethyl ester]	3.0	2.0	3.0	0.0	2.0	3.0	0.0	2.0	2.0	2.0	4.0	4.0	2.0	3.0	3.0	0.0	0.5	0.5	1.5	2.5	Herbicide rating (0-9) GLXMAW ([3]; 0.500 kg/ha): 2.0
CCOC(=O)Cn1c(=O)[nH]c(=O)n(-c2ccc(F)c(N3C(=O)C4=C(CCCC4)C3=O)c2)c1=O [Compound 9, Ethyl 3-[3-(1-cyclohexene-1,2-dicarbox-imido)-4-fluorophenyl]tetrahydro-2,4,6-trioxo-s-triazine-1(2H)-acetate]	2.0	2.0	4.0	0.0	2.0	2.0	0.0	0.0	2.0	2.0	2.0	3.0	3.0	4.0	5.4	1.0	1.5	1.5	2.0	2.5	Herbicide rating (0-9) ORYSAT ([4]; 0.125 kg/ha): 1.5; Herbicide rating (0-9) ORYSAT ([4]; 0.250 kg/ha): 2.0; Herbicide rating (0-9) ORYSAT ([4]; 0.500 kg/ha): 2.0; Herbicide rating (0-9) TRZAWO ([5]; 0.125 kg/ha): 1.0; Herbicide rating (0-9) TRZAWO ([5]; 0.250 kg/ha): 2.0; Herbicide rating (0-9) TRZAWO ([5]; 0.500 kg/ha): 2.0; Herbicide rating (0-9) GLXMAW ([3]; 0.500 kg/ha): 3.5
CC(C)OC(=O)Cn1c(=O)n(C)c(=O)n(-c2cc(N3C(=O)C4C[S+]([O-])CCN4C3=O)c(F)cc2Cl)c1=O (stereo not drawn) [Compound 14, Isopropyl 3-[2-chloro-4-fluoro-5-(tetra-hydro-1,3,7-trioxo-1H-imidazo[5,1-c][1,4]-thiazin-2(3H)-yl)phenyl]tetrahydro-5-methyl-2,4,6-trioxo-s-triazine-1(2H)-acetate]	3.0	3.0	4.0	4.0	5.0	6.0	6.0	8.0	7.0	3.0	4.0	4.0	3.0	5.0	6.0	1.5	1.0	1.5	3.5	4.0	Herbicide rating (0-9) ORYSAT ([4]; 0.125 kg/ha): 2.5; Herbicide rating (0-9) ORYSAT ([4]; 0.250 kg/ha): 2.5; Herbicide rating (0-9) ORYSAT ([4]; 0.500 kg/ha): 4.5; Herbicide rating (0-9) GLXMAW ([3]; 0.500 kg/ha): 4.5
